Reference: paper PMC4336329 (PLoS ONE, 2015)
In all, about 310,000 compounds went through this assay and about 2,200 (0.71%) showed an effect of 50% or more. The effect is printed as a negative number. The list shows a part of the results.

Target: human ether-à-go-go-related gene (hERG) potassium channel (human, UniProt Q12809)
Experiment: primary screen, population patch clamp on CHO cells stably expressing hERG

human ether-à-go-go-related gene (hERG) potassium channel, sequence (Q12809 whole entry, looked up): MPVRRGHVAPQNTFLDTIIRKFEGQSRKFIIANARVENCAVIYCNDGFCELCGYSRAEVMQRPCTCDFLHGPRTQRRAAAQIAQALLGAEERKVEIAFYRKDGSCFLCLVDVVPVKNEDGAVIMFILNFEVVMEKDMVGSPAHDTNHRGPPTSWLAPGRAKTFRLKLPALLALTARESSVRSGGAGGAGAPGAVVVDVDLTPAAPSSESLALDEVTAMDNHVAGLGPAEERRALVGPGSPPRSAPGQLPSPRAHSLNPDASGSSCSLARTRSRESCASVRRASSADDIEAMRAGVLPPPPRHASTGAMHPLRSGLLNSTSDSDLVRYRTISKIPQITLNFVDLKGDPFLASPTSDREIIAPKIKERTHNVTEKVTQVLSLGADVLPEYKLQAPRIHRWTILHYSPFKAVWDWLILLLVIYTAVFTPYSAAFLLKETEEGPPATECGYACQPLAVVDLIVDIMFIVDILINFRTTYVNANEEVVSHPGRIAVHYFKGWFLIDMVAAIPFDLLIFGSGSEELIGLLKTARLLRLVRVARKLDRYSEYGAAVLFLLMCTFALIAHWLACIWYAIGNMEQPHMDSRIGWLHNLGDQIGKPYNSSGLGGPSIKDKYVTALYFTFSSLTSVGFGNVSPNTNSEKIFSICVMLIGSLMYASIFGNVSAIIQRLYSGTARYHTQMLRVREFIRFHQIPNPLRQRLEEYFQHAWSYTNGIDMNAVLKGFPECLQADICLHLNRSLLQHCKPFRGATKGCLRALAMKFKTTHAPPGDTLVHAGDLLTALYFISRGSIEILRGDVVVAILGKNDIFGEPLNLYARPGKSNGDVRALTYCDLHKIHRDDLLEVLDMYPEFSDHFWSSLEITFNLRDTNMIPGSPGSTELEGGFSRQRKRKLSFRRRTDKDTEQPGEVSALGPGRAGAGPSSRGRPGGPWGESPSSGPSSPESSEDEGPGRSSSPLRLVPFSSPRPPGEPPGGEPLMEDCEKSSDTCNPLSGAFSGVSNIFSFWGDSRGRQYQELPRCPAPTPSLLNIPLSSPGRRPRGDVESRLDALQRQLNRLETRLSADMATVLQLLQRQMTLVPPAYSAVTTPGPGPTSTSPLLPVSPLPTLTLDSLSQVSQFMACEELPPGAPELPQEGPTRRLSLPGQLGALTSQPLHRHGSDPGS

| Compound | hERG current change (%, negative = inhibition) at 1uM |
| --- | --- |
| CC(=O)c1ccc(Nc2cc(C)nc3c(C)cccc23)cc1 | 0.497% |
| CCOC(=O)c1c(C)n(OCc2ccccc2)c2ccc3nonc3c12 | 9.48% |
| Cc1ccc(Nc2ccc([N+](=O)[O-])cn2)cc1Cl | 9.08% |
| CCOC(=O)c1sc(NC(=O)c2ccc(S(=O)(=O)N3CCOCC3)cc2)cc1C | 5.83% |
| COc1cccc(OC)c1C(=O)NC(=S)Nc1cccc(NC(=O)c2ccco2)c1 | 16.4% |
| CCC12C=CCN3CCC4(c5cc(Br)c(OC)cc5N(C)C4C(O)(C(=O)OC)C1OC(C)=O)C32 (centres unmarked) | 8.22% |
| COc1cc(/C=N/N(CCO)C2=NS(=O)(=O)c3ccccc32)cc(OC)c1OC | 8.78% |
| O=C(c1ccco1)N1CCN(S(=O)(=O)c2ccc3c(c2)CCN3C(=O)C2CCC2)CC1 | 11.7% |
| CCOc1ccc(CCNC(=O)CN2C(=O)NC(CCSC)C2=O)cc1OCC (centres unmarked) | 10.6% |
| O=S(=O)(NC1CCCCC1)c1ccc(N2CCOCC2)nc1 | 9.26% |
| Cc1ccc(C(=O)c2sc3nc4c(cc3c2N)CCC4)cc1 | -0.546% |
| COc1ccc(CCNC(=O)c2nnn(CC(=O)Nc3cccc(F)c3)c2N)cc1OC | 9.38% |
| COc1cccc(-n2c(-c3ccoc3)nc3ccccc3c2=O)c1 | -7.27% |
| CC(=O)N/C(=C\c1ccccc1Cl)C(=O)O | 14% |
| Cc1cccc(C)c1OCC(O)CN1CCN(c2ccccc2)CC1.Cl (centres unmarked) | -13.5% |
| Cc1nc2cc(NCc3cccs3)ccc2n1C | -7.17% |
| CC(C)OCCCNS(=O)(=O)c1ccc2c(c1)OCCO2 | 7.24% |
| Cc1nc2cc(-c3cccc(F)c3)nn2c(C)c1CCC(=O)N1CCN(c2ccccn2)CC1 | 5.93% |
| CCOc1ccc(NC(=S)N(CCOC)C2CCN(C(C)C)CC2)cc1 | 3.44% |
| Cc1cccc(NC(=O)CN2C(=S)NC(C)(C)CC2C)c1 (centres unmarked) | 7.29% |
| O=c1[nH]c(=S)n(CCC2=CCCCC2)c(O)c1C=NCc1cccnc1 | -4.07% |

| Compound | hERG current change (%, negative = inhibition) at 1uM |
| --- | --- |
| CCOC(=O)c1c(C)nn(Cc2ccccc2)c1N | 8.84% |
| O=C(Nc1ccc(N2CCOCC2)c(Cl)c1)c1ccc(Cl)cc1 | -1.03% |
| COCCn1c(SCC(=O)Nc2cccc(F)c2)nc2c([nH]c3ccccc32)c1=O | 21.8% |
| Cc1ccc(-n2c(-c3ccccc3)cc(/C=N/NC(=O)CC#N)c2-c2ccccc2)cc1 | 7.93% |
| CCCC(=O)Nc1ccccc1N1CCN(C(=O)C(C)C)CC1 | 7.84% |
| COc1ccc(NC(C)=O)cc1NC(=O)CN1CCN(CC(=O)Nc2ccc(Cl)cc2)CC1 | -34.7% |
| Cc1ccc(C(=O)COC(=O)c2ccco2)cc1C | 10.4% |
| Cc1ccc(N2C(=O)CC3(CCCC3)CC2=O)cc1 | 11.5% |
| Nc1nc(-c2ccco2)nc(N2CCCCC2)n1 | -1.74% |
| COc1cc2c(cc1OC)C(c1ccccc1OC(C)C)CC(=O)N2 (centres unmarked) | 9.37% |
| c1cncc(-c2nnc3n2N=C(c2cccs2)CS3)c1 | -4.88% |
| CC(=O)OCCNc1cc(SCc2ccco2)c2nonc2c1[N+](=O)[O-] | 3.43% |
| CCOc1cc([N+](=O)[O-])cc(/C=C2/NC(=O)N(Cc3ccccc3F)C2=O)c1O | 4.45% |
| CCOC(=O)C(C)Sc1ccc2nnc(CCNS(=O)(=O)c3ccccc3)n2n1 (centres unmarked) | 9.82% |
| CN(C)S(=O)(=O)N1CCC(Oc2ccc(C(=O)NC3CCOC(C)(C)C3)cc2)CC1 (centres unmarked) | 11.8% |
| CC(C)[C@H](NC(=O)c1cccc(S(=O)(=O)N2CCOCC2)c1)C(=O)Nc1nccs1 | 7.18% |
| CC(=O)c1cc2c(cc1NC(=O)Cn1nc(-c3ccc(C)cc3)ccc1=O)OCO2 | 0.773% |
| Cc1nc(NCCOc2ccccc2)sc1C(=O)Nc1ccccc1 | 13.9% |
| O=[N+]([O-])c1cccc(CNc2ccc3c(c2)CCC3)c1 | 4.27% |
| Cc1ccc(OC(=O)C23CC4CC(CC(C4)C2)C3)c(C)n1 | 12.1% |
| O=C1CN(C(=O)c2ccccc2)C(c2ccccc2)c2cc(Cl)ccc2N1 (centres unmarked) | -5.25% |

| Compound | hERG current change (%, negative = inhibition) at 1uM |
| --- | --- |
| Cc1c(C(=O)NCc2ccccc2CN2CCCC2)oc2c(F)cccc12 | -1.75% |
| Cc1ccc(NC(=O)c2ccc(CN3CC(=O)N4CCCCC4C3=O)cc2)c(C)c1 (centres unmarked) | 4.54% |
| Cc1ccc(NC(=O)Cn2nnc(C(=O)NCc3cccs3)c2N)c(C)c1 | 15.3% |
| CCCCOc1ccc(OCCCN2CCOCC2)cc1.Cl | -0.223% |
| COc1cc(/C=C(\C#N)C(=O)N2CCOCC2)cc(Br)c1O | 8.38% |
| Oc1ccc(/C=N/N(c2ccccc2)c2ccccc2)cc1O | 11.5% |
| Oc1[nH]c2ccccc2c1N=NC(=S)N1CCOCC1 | 9.53% |
| O=C(c1nn2c(C(F)(F)F)cc(-c3cccs3)nc2c1Cl)N1CCCc2ccccc21 | 14.2% |
| Cc1ccc(N2C(=O)[C@@H]3C(C(=O)CN4C(=O)c5ccccc5C4=O)=NN[C@@H]3C2=O)c(C)c1 | 14.2% |
| COc1cccc(OC)c1C(=O)NC(=S)N1CCN(c2ccc(C(F)(F)F)cc2[N+](=O)[O-])CC1 | -9.25% |
| Cc1cc(C)n(-c2ccc(C(=O)Nc3ccc(C)c(S(=O)(=O)N(C)C)c3)cc2)n1 | 1.12% |
| Cc1c(NC(=O)C(C)OC(=O)c2c3c(nc4ccccc24)CCC3)c(=O)n(-c2ccccc2)n1C (centres unmarked) | -7.3% |
| Cc1nc(N2CCN(c3ccccn3)CC2)c2c(C)c(C(=O)Nc3ccc(Cl)cc3)sc2n1 | 13.4% |
| c1ccc2c(SCc3cn4cccnc4n3)ncnc2c1 | 7.65% |
| CCn1c(SCC(=O)N2CCCc3ccccc32)nnc1-c1ccco1 | 3.48% |
| Cc1ccc(S(=O)(=O)N2CCCC(C(=O)Nc3cccnc3)C2)cc1 (centres unmarked) | -6.51% |
| CN(C)C(CNC(=O)C1CCN(S(=O)(=O)c2cccc(Cl)c2Cl)CC1)c1ccccc1 (centres unmarked) | -1.84% |
| CCN1CCN(c2ccc(S(=O)(=O)N3CCCCC3)cc2NC(=O)c2ccc([N+](=O)[O-])s2)CC1 | -13.8% |
| CCc1nnc(NC(=O)Cc2sc(C)nc2-c2ccc(C)cc2)s1 | 11.5% |
| O=C(NCCCN1CCN(Cc2ccccc2)CC1)C1CCN(S(=O)(=O)N2CCC3(CC2)OCCO3)CC1 | 8.57% |
| CC(=O)Nc1nc2ccc(C(=O)NCCOC(=O)C3CCCCC3)cc2s1 | 3.91% |

| Compound | hERG current change (%, negative = inhibition) at 1uM |
| --- | --- |
| CCOc1cc(/C=C2/C(=O)ON=C2C)cc(Br)c1O | 16.2% |
| Cc1ccc(S(=O)(=O)NN)c(C)c1N1CCCC1=O | 7.47% |
| Cc1ccc(S(=O)(=O)N(CC(=O)NCc2ccco2)Cc2ccc(F)cc2)cc1 | -13.6% |
| CCOc1ccccc1N1CCN(C(=O)c2c(-c3c(F)cccc3Cl)noc2C)CC1 | 13.7% |
| COc1ccc(/C=N/NC(=O)Cn2nc([N+](=O)[O-])cc2C)c(OC)c1OC | 15.5% |
| CCOC(=O)c1c(C)n(COCCO)c2ccc(O)cc12 | 15% |
| O=C(CSc1nc2ccccc2n1CCc1ccccc1)NC1CCS(=O)(=O)C1 (centres unmarked) | 6.7% |
| CCNC(=O)NC(=O)C(C)OC(=O)C1CCN(S(=O)(=O)c2ccccc2C(=O)OC)CC1 (centres unmarked) | 10.2% |
| NC(=O)c1nc(C(=O)N2CCN(c3ccccc3)CC2)c2ccccc2n1 | 9.67% |
| COc1ccc(NC(=O)CSc2nc3c(sc4ccccc43)c(=O)n2CCCN2CCCC2)cc1 | -1.35% |
| CCOC(=O)C1=C(Cn2cnc3ccccc32)NC(=O)NC1c1cc(C)ccc1C (centres unmarked) | 12.2% |
| COc1ccccc1N1CCN(C(=O)CSc2ncnc3c2cnn3-c2ccc(C)c(C)c2)CC1 | 8.88% |
| CC1(C)O[C@H]2CC(=O)OC[C@]23[C@H]2CC[C@@]4(C)[C@H](c5ccoc5)OC(=O)[C@H]5O[C@]54[C@]2(C)[C@@H](O)C[C@@H]13 | 12.2% |
| Cc1ccc(C(=O)C2CCN(C(=O)c3ccc(C)cc3)CC2)cc1 | 9.84% |
| O=C(C(Cc1ccccc1)n1cccc1)N1CCN(c2ccccc2)CC1 (centres unmarked) | 15.3% |
| COc1ccc(N2CCN(CC(O)COC(c3ccc(F)cc3)c3ccc(F)cc3)CC2)cc1.O=C(O)C(=O)O (centres unmarked) | -74% |
| COc1ccc(CNC(=O)c2cccc(S(=O)(=O)N3CCCCC3)c2)cc1OC | 8.06% |
| COC(=O)Nc1ccc(S(=O)(=O)N2CCCc3cccc(O)c32)cc1 | 40.1% |
| CN(C)CCNc1nc2c(c(=O)[nH]c(=O)n2C)n1CC(O)COc1ccc(Cl)cc1 (centres unmarked) | 5.04% |
| COc1cc(C(=O)OCC(=O)NC(C)CCc2ccccc2)cc(OC)c1OC (centres unmarked) | 11.3% |
